From the supplement of paper PMC9151546
Single values are uncertain, as repeats are few or missing.

Key:
CHO-K1 [1] = assay: micronucleus frequency (% of nucleated events); higher = more micronuclei (genotoxic)
CHO-K1 [2] = assay: relative survival (nuclei to bead ratio vs DMSO control) (% of vehicle control); higher = more surviving cells
Method: (§1)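 Flow-cytometric in vitro micronucleus assay (Litron MicroFlow) in CHO-K1 cells in 96-well plates, 19 concentrations (4.5-200 µM, n=1 per concentration). Without S9, cells were exposed for 24 h and sampled at 48 h. With Aroclor 1254-induced rat liver S9, cells were exposed for 3-4 h and sampled at 27-28 h. Read-outs are %MN and %hypodiploid nuclei relative to nucleated events, and relative survival as the nuclei-to-bead ratio versus the 1% DMSO vehicle control (x100).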

CHO-K1 [3] = assay: hypodiploid nuclei frequency (% of nucleated events); higher = more hypodiploid events (aneugenic)
Method: as §1

[4] = concentration: 4.5 (µM), S9 metabolic activation: with S9, exposure time: 3-4 hours
[5] = concentration: 4.5 (µM), S9 metabolic activation: without S9, exposure time: 24 hours
[6] = concentration: 5.63 (µM), S9 metabolic activation: with S9, exposure time: 3-4 hours
[7] = concentration: 5.63 (µM), S9 metabolic activation: without S9, exposure time: 24 hours
[8] = concentration: 7.04 (µM), S9 metabolic activation: with S9, exposure time: 3-4 hours
[9] = concentration: 7.04 (µM), S9 metabolic activation: without S9, exposure time: 24 hours
[10] = concentration: 8.8 (µM), S9 metabolic activation: with S9, exposure time: 3-4 hours
[11] = concentration: 8.8 (µM), S9 metabolic activation: without S9, exposure time: 24 hours
[12] = concentration: 11 (µM), S9 metabolic activation: with S9, exposure time: 3-4 hours
[13] = concentration: 11 (µM), S9 metabolic activation: without S9, exposure time: 24 hours
[14] = concentration: 13.7 (µM), S9 metabolic activation: with S9, exposure time: 3-4 hours
[15] = concentration: 13.7 (µM), S9 metabolic activation: without S9, exposure time: 24 hours
[16] = concentration: 17.2 (µM), S9 metabolic activation: with S9, exposure time: 3-4 hours
[17] = concentration: 17.2 (µM), S9 metabolic activation: without S9, exposure time: 24 hours
[18] = concentration: 21.5 (µM), S9 metabolic activation: with S9, exposure time: 3-4 hours
[19] = concentration: 21.5 (µM), S9 metabolic activation: without S9, exposure time: 24 hours
[20] = concentration: 26.8 (µM), S9 metabolic activation: with S9, exposure time: 3-4 hours
[21] = concentration: 26.8 (µM), S9 metabolic activation: without S9, exposure time: 24 hours
[22] = concentration: 33.6 (µM), S9 metabolic activation: with S9, exposure time: 3-4 hours
[23] = concentration: 33.6 (µM), S9 metabolic activation: without S9, exposure time: 24 hours
[24] = concentration: 41.9 (µM), S9 metabolic activation: with S9, exposure time: 3-4 hours
[25] = concentration: 41.9 (µM), S9 metabolic activation: without S9, exposure time: 24 hours
[26] = concentration: 52.4 (µM), S9 metabolic activation: with S9, exposure time: 3-4 hours
[27] = concentration: 52.4 (µM), S9 metabolic activation: without S9, exposure time: 24 hours
[28] = concentration: 65.5 (µM), S9 metabolic activation: with S9, exposure time: 3-4 hours
[29] = concentration: 65.5 (µM), S9 metabolic activation: without S9, exposure time: 24 hours
[30] = concentration: 81.9 (µM), S9 metabolic activation: with S9, exposure time: 3-4 hours
[31] = concentration: 81.9 (µM), S9 metabolic activation: without S9, exposure time: 24 hours
[32] = concentration: 102 (µM), S9 metabolic activation: with S9, exposure time: 3-4 hours
[33] = concentration: 102 (µM), S9 metabolic activation: without S9, exposure time: 24 hours
[34] = concentration: 128 (µM), S9 metabolic activation: with S9, exposure time: 3-4 hours
[35] = concentration: 128 (µM), S9 metabolic activation: without S9, exposure time: 24 hours
[36] = concentration: 160 (µM), S9 metabolic activation: with S9, exposure time: 3-4 hours
[37] = concentration: 160 (µM), S9 metabolic activation: without S9, exposure time: 24 hours
[38] = concentration: 200 (µM), S9 metabolic activation: with S9, exposure time: 3-4 hours
[39] = concentration: 200 (µM), S9 metabolic activation: without S9, exposure time: 24 hours
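Wherever hypodiploid nuclei frequency (% of nucleated events) is given: hypodiploid nuclei gated on a flow cytometer with 488 nm excitation after SYTOX Green staining, cultures at 37 °C, positive controls vinblastine without S9 and cyclophosphamide with S9.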
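Wherever micronucleus frequency (% of nucleated events) is given: cells lysed with nuclei stained by SYTOX Green, then micronucleus-gated events counted against nucleated events by flow cytometry with 488 nm excitation.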
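Wherever relative survival (nuclei to bead ratio vs DMSO control) is given: Lysed-cell nuclei stained with SYTOX Green and counted against counting beads by flow cytometry at 488 nm excitation, with vinblastine (no S9) and cyclophosphamide (plus S9) as positive controls.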

COC(=O)c1ccc(O)cc1 [Methylparaben]
micronucleus frequency (CHO-K1 [1]; [4]): 1.46% | micronucleus frequency (CHO-K1 [1]; [5]): 1.42% | micronucleus frequency (CHO-K1 [1]; [6]): 1.5% | micronucleus frequency (CHO-K1 [1]; [7]): 1.8% | micronucleus frequency (CHO-K1 [1]; [8]): 1.7% | micronucleus frequency (CHO-K1 [1]; [9]): 1.34% | micronucleus frequency (CHO-K1 [1]; [10]): 1.36% | micronucleus frequency (CHO-K1 [1]; [11]): 1.26% | micronucleus frequency (CHO-K1 [1]; [12]): 1.96% | micronucleus frequency (CHO-K1 [1]; [13]): 1.4% | micronucleus frequency (CHO-K1 [1]; [14]): 1.04% | micronucleus frequency (CHO-K1 [1]; [15]): 1.24% | micronucleus frequency (CHO-K1 [1]; [16]): 1.5% | micronucleus frequency (CHO-K1 [1]; [17]): 1.22% | micronucleus frequency (CHO-K1 [1]; [18]): 1.42% | micronucleus frequency (CHO-K1 [1]; [19]): 1.1% | micronucleus frequency (CHO-K1 [1]; [20]): 1.16% | micronucleus frequency (CHO-K1 [1]; [21]): 1.42% | micronucleus frequency (CHO-K1 [1]; [22]): 1.22% | micronucleus frequency (CHO-K1 [1]; [23]): 1.34% | micronucleus frequency (CHO-K1 [1]; [24]): 1.12% | micronucleus frequency (CHO-K1 [1]; [25]): 1.66% | micronucleus frequency (CHO-K1 [1]; [26]): 1.32% | micronucleus frequency (CHO-K1 [1]; [27]): 1.66% | micronucleus frequency (CHO-K1 [1]; [28]): 1.86% | micronucleus frequency (CHO-K1 [1]; [29]): 1.68% | micronucleus frequency (CHO-K1 [1]; [30]): 1.7% | micronucleus frequency (CHO-K1 [1]; [31]): 1.94% | micronucleus frequency (CHO-K1 [1]; [32]): 1% | micronucleus frequency (CHO-K1 [1]; [33]): 1.66% | micronucleus frequency (CHO-K1 [1]; [34]): 1.14% | micronucleus frequency (CHO-K1 [1]; [35]): 1.9% | micronucleus frequency (CHO-K1 [1]; [36]): 1.48% | micronucleus frequency (CHO-K1 [1]; [37]): 1.68% | micronucleus frequency (CHO-K1 [1]; [38]): 1.66% | micronucleus frequency (CHO-K1 [1]; [39]): 2.04% | relative survival (CHO-K1 [2]; [4]): 93.1 | relative survival (CHO-K1 [2]; [5]): 113 | relative survival (CHO-K1 [2]; [6]): 84.8 | relative survival (CHO-K1 [2]; [7]): 90.7 | relative survival (CHO-K1 [2]; [8]): 98.8 | relative survival (CHO-K1 [2]; [9]): 114 | relative survival (CHO-K1 [2]; [10]): 115 | relative survival (CHO-K1 [2]; [11]): 107 | relative survival (CHO-K1 [2]; [12]): 123 | relative survival (CHO-K1 [2]; [13]): 107 | relative survival (CHO-K1 [2]; [14]): 109 | relative survival (CHO-K1 [2]; [15]): 109 | relative survival (CHO-K1 [2]; [16]): 143 | relative survival (CHO-K1 [2]; [17]): 106 | relative survival (CHO-K1 [2]; [18]): 121 | relative survival (CHO-K1 [2]; [19]): 100 | relative survival (CHO-K1 [2]; [20]): 88.5 | relative survival (CHO-K1 [2]; [21]): 90.7 | relative survival (CHO-K1 [2]; [22]): 85.5 | relative survival (CHO-K1 [2]; [23]): 93.6 | relative survival (CHO-K1 [2]; [24]): 77.1 | relative survival (CHO-K1 [2]; [25]): 92.6 | relative survival (CHO-K1 [2]; [26]): 89.5 | relative survival (CHO-K1 [2]; [27]): 89 | relative survival (CHO-K1 [2]; [28]): 87.3 | relative survival (CHO-K1 [2]; [29]): 82.8 | relative survival (CHO-K1 [2]; [30]): 83.7 | relative survival (CHO-K1 [2]; [31]): 88.1 | relative survival (CHO-K1 [2]; [32]): 85.7 | relative survival (CHO-K1 [2]; [33]): 99.8 | relative survival (CHO-K1 [2]; [34]): 91 | relative survival (CHO-K1 [2]; [35]): 91.7 | relative survival (CHO-K1 [2]; [36]): 91.3 | relative survival (CHO-K1 [2]; [37]): 89 | relative survival (CHO-K1 [2]; [38]): 89.5 | relative survival (CHO-K1 [2]; [39]): 104 | hypodiploid nuclei frequency (CHO-K1 [3]; [4]): 0.46% | hypodiploid nuclei frequency (CHO-K1 [3]; [5]): 0.48% | hypodiploid nuclei frequency (CHO-K1 [3]; [6]): 0.4% | hypodiploid nuclei frequency (CHO-K1 [3]; [7]): 0.6% | hypodiploid nuclei frequency (CHO-K1 [3]; [8]): 0.32% | hypodiploid nuclei frequency (CHO-K1 [3]; [9]): 0.5% | hypodiploid nuclei frequency (CHO-K1 [3]; [10]): 0.24% | hypodiploid nuclei frequency (CHO-K1 [3]; [11]): 0.52% | hypodiploid nuclei frequency (CHO-K1 [3]; [12]): 0.4% | hypodiploid nuclei frequency (CHO-K1 [3]; [13]): 0.68% | hypodiploid nuclei frequency (CHO-K1 [3]; [14]): 0.34% | hypodiploid nuclei frequency (CHO-K1 [3]; [15]): 0.44% | hypodiploid nuclei frequency (CHO-K1 [3]; [16]): 0.22% | hypodiploid nuclei frequency (CHO-K1 [3]; [17]): 0.4% | hypodiploid nuclei frequency (CHO-K1 [3]; [18]): 0.3% | hypodiploid nuclei frequency (CHO-K1 [3]; [19]): 0.64% | hypodiploid nuclei frequency (CHO-K1 [3]; [20]): 0.48% | hypodiploid nuclei frequency (CHO-K1 [3]; [21]): 0.64% | hypodiploid nuclei frequency (CHO-K1 [3]; [22]): 0.42% | hypodiploid nuclei frequency (CHO-K1 [3]; [23]): 0.44% | hypodiploid nuclei frequency (CHO-K1 [3]; [24]): 0.52% | hypodiploid nuclei frequency (CHO-K1 [3]; [25]): 0.32% | hypodiploid nuclei frequency (CHO-K1 [3]; [26]): 0.34% | hypodiploid nuclei frequency (CHO-K1 [3]; [27]): 0.72% | hypodiploid nuclei frequency (CHO-K1 [3]; [28]): 0.28% | hypodiploid nuclei frequency (CHO-K1 [3]; [29]): 0.44% | hypodiploid nuclei frequency (CHO-K1 [3]; [30]): 0.34% | hypodiploid nuclei frequency (CHO-K1 [3]; [31]): 0.74% | hypodiploid nuclei frequency (CHO-K1 [3]; [32]): 0.46% | hypodiploid nuclei frequency (CHO-K1 [3]; [33]): 0.72% | hypodiploid nuclei frequency (CHO-K1 [3]; [34]): 0.3% | hypodiploid nuclei frequency (CHO-K1 [3]; [35]): 0.92% | hypodiploid nuclei frequency (CHO-K1 [3]; [36]): 0.28% | hypodiploid nuclei frequency (CHO-K1 [3]; [37]): 1.02% | hypodiploid nuclei frequency (CHO-K1 [3]; [38]): 0.16% | hypodiploid nuclei frequency (CHO-K1 [3]; [39]): 1.02%
